According to PubChem BioAssay AID485344 (National Center for Advancing Translational Sciences (NCATS), 2010):
About 6,900 (2%) of roughly 340,000 compounds were called active. Cut-off read from the data, not from the text of the source: active = inhibition above about 30%; inactive = below that, where a call was filed. The entries are a selection whose mix differs from that of the whole data set. Entries without a call were filed so in the source.

target: D(2) dopamine receptor (Homo sapiens) (UniProt P14416); assay: HTS Assay for Allosteric Antagonists of the Human D2 Dopamine Receptor: Primary Screen for Antagonists; details: HEK293 TREx D2 cells, calcium flux, dopamine EC80; at 10 µM; stronger effect = higher value; note: 0% is about no effect
Chain of UniProt P14416 (P14416 whole entry, looked up): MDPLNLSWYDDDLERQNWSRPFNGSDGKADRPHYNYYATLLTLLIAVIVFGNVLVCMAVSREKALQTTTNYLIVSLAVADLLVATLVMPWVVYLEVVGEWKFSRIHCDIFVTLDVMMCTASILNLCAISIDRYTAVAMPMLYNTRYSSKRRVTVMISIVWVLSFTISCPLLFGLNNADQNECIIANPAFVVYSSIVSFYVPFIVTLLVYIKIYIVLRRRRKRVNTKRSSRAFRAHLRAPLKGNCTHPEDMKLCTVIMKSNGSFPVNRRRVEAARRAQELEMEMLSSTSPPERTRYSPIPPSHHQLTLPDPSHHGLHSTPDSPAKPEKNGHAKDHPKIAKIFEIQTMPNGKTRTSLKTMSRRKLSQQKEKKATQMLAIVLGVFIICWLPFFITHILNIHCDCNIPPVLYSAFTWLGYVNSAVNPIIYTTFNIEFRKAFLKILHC
Method in brief: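 Calcium flux kinetic readout in an inducible HEK293 TREx D2 line plated overnight at 30 C. After 180 s compound exposure, an EC80 dopamine challenge follows with another 180 s kinetic read to detect antagonism.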

| SMILES | inhibition |
| --- | --- |
| CCN(CC)c1ccc(-n2nc3cc(C)c(NC(=O)c4ccccc4F)cc3n2)cc1 | -7.22% |
| CCCCc1ccc(NC(=O)COc2cccc3c(=O)n(C)ccc23)cc1 | 13.5% |
| CCOC(=O)c1c(C)c(-c2ccccc2)n(CC(=O)NCCc2ccc(C)cc2)c1C | 13.8% |
| Cc1ccc2nc(CSc3nnc(NC(=O)COc4ccccc4)s3)cc(=O)n2c1 | -3.49% |
| CCOC(=O)c1ccc(NC(=O)c2cc(=O)c3cc(CC)ccc3o2)cc1 | 11.3% |
| Cc1ccc(NC(=O)N2CCC(CN3CCC(C)CC3)CC2)cc1F | -3.48% |
| COc1ccc(-c2cc(C(F)(F)F)nc(SCC(=O)NCCc3ccc(OC)c(OC)c3)n2)cc1 | 0.0746% |
| Cn1c(CN2CCCCC2)nc2cc(NS(=O)(=O)c3ccc(F)cc3)ccc21 | active: 74.4% |
| CCCc1cc(=O)n2[nH]c(-c3ccc(C)cc3)nc2n1 | -21.1% |
| COc1cccc(CNC(=O)C(NS(=O)(=O)c2ccc3nc(C)sc3c2)C(C)C)c1 (centres undefined) | 8.2% |
| Cc1ccc(NC(=O)C2CCCN(c3nnc(-n4c(C)ccc4C)s3)C2)cc1Cl (centres undefined) | 6.43% |
| CCc1ccc(NC(=O)CN2C(=O)C(c3ccccc3)=NC23CCCCCC3)cc1 | -1.89% |
| CCc1ccc(NC(=O)N(Cc2ccc(C)cc2)Cc2cccn2-c2nnc(N3CCCC3=O)s2)cc1 | 12.1% |
| COc1ccc(S(=O)(=O)N(C)Cc2nc(-c3cccc(C)c3)no2)cc1 | 0.79% |
| O=C(CSc1nc2ccsc2c(=O)n1Cc1ccccc1F)NCc1ccccc1 | 25.8% |
| Cc1ccc(S(=O)(=O)N(C)C)cc1NC(=S)Nc1ccc2[nH]c(=O)[nH]c2c1 | active: 48.9% |
| CCc1cccc(-n2nnc(-c3nc(-c4cccs4)no3)c2N)c1 | 20.2% |
| CCC(=O)OCCCNc1nc(-c2ccc(Cl)cc2)nc2ccccc12 | -11.4% |
| CC(=O)N1CCCc2cc(S(=O)(=O)N3CCN(c4ccc(F)cc4)CC3)ccc21 | -13.3% |
| COc1cccc(OC)c1C(=O)Nc1cccc(-c2nc3cc(C)cc(C)c3o2)c1 | 1.25% |
| Clc1ccc2nc(-c3ccc(Br)o3)c(Nc3ccc4c(c3)OCCO4)n2c1 | 9.79% |
| COc1ccc(NC(=O)c2noc3c2CSc2ccccc2-3)cc1Cl | 1.47% |
| CCC(=O)N1CCc2cc(Br)cc(S(=O)(=O)CCC(=O)NCCc3ccccc3Cl)c21 | -11.5% |
| CN1CCN(C(c2cccc(Br)c2)c2sc3nc(-c4ccco4)nn3c2O)CC1 (centres undefined) | -13.4% |

| SMILES | inhibition |
| --- | --- |
| CCOc1ccc(-c2nonc2NC(=O)c2ccc(C)cc2)cc1OCC | -1.84% |
| O=C(Cc1csc2ccccc12)NCc1ccccc1F | -2.43% |
| CCOc1ccc(-c2nc(SCC(=O)Nc3ccc4c(c3)OCCO4)c(-c3ccc(F)cc3)[nH]2)cc1 | 11% |
| CC1CCc2onc(C(=O)N3CCN(c4cccc(C(F)(F)F)c4)CC3)c2C1 (centres undefined) | 16.2% |
| COc1ccc(-c2nc3ccccc3s2)cc1NC(=O)c1cc2ccccc2o1 | -2.11% |
| COc1ccc(-n2nc(C(=O)N(C)C)nc2-c2ccccc2)cc1 | active: 31.2% |
| Cc1ccc(NC(=O)CCNS(=O)(=O)c2cccc3nsnc23)cc1 | -7.78% |
| CN(CC(=O)Nc1ccc(F)cc1F)S(=O)(=O)c1ccc(C(=O)N2CCOCC2)s1 | 13.1% |
| Cc1cc(C)c(/C=C/c2onc(C)c2S(=O)(=O)N2CCC(C(=O)N3CCN(c4ccc(Cl)cc4)CC3)CC2)c(C)c1 | 1.25% |
| Cc1ccc(NC(=O)Cn2c(C)cc(C)c(C#N)c2=O)cc1F | -27.1% |
| Cc1ccc(C(=O)Nc2nc3n(n2)C(c2ccccc2)C=C(c2ccccc2)N3)cc1 (centres undefined) | 7.89% |
| Cc1ccc2cccc(NC(=O)c3ccc(-c4cc(Cl)ccc4Cl)o3)c2n1 | -11.1% |
| COc1cc(/C=N/NC(=O)CCC(=O)Nc2ccc(Br)cc2)ccc1O | active: 31.9% |
| Cc1ccc(Cl)cc1N1CCN(C(=O)Cn2cnc3nc4c(cc3c2=O)CCCC4)CC1 | -15.2% |
| COc1ccc(OC)c(NC(=O)c2ccc3c(c2)c(C)c(C)n3Cc2ccc(F)cc2)c1 | 3.62% |
| CCN(CC)C(=O)Cn1c(=O)n(CCCCCC(=O)NCc2ccccc2Cl)c(=O)c2sccc21 | -3.84% |
| O=C(NCc1cccc(Br)c1)c1cccn1-c1nnc(N2CCCCC2)s1 | -9.39% |
| CCn1cc(S(=O)(=O)c2cc(C)cc(C)c2)c(=O)c2cc(F)c(N3CCC(C)CC3)cc21 | 10.4% |
| CCOc1ccc(N(C(=O)c2ccc(C)cc2)S(=O)(=O)c2ccc3c(c2)n(C)c(=O)n3C)cc1 | 13.9% |
| Cc1ccc2nc(-c3ccc(C)c(NC(=O)CSc4ccc(Cl)cc4)c3)oc2c1 | -23.9% |
| CCCCn1c(/C=C/c2ccco2)nc2ccccc21 | active: 63.7% |
| NC(=O)c1cc(S(=O)(=O)N2CCCCC2)cs1 | 4.81% |
| CCNC(=O)CC1C(=O)N(c2ccc(C)cc2)C(=O)N1Cc1ccc(C)cc1 (centres undefined) | 2.97% |
| O=C(CCS(=O)(=O)c1ccc2c(c1)NC(=O)CO2)Nc1cccc(C(F)(F)F)c1 | -6.88% |

| SMILES | inhibition |
| --- | --- |
| COc1ccc(CCn2c3c(c(=O)[nH]c2=O)C(NC(=O)c2ccccc2)(C(F)(F)F)C(=O)N3)cc1OC (centres undefined) | -3.01% |
| COc1ccc(NC(=O)Cn2nnc(C(=O)NCc3ccccc3Cl)c2N)cc1Cl | -0.385% |
| Oc1ccc(Cl)cc1Nc1nc2ccccc2n2cnnc12 | 3.51% |
| COc1ccc(CNC(=O)CCCc2cn(C)c3ccccc23)c(OC)c1 | 28.1% |
| O=C(CC(c1ccccc1)c1cc(Br)ccc1O)NCC1(c2ccccc2)CCCC1 (centres undefined) | -1.29% |
| CCOC(=O)c1ccc(NC(=O)Cc2ccc(-n3c(CC)nc4cccnc43)cc2)cc1 | 5.86% |
| COc1ccc(NC(=O)CN(C)C(=O)c2cc(C3CC3)nn2-c2ccccc2)cc1 | active: 39.5% |
| COc1ccccc1N(Cc1cc2cccc(C)c2[nH]c1=O)C(=O)c1cccc(Cl)c1 | -0.673% |
| COC(=O)c1cc2oc(C)cc2n1CC(=O)Nc1ccc(C)cc1C | 9.82% |
| Cc1ccc(/C=C/c2onc(C)c2S(=O)(=O)N2CCC(C(=O)N3CCOc4ccccc43)CC2)cc1 | -7.86% |
| O=C(Cn1c(=O)n(Cc2ccccc2)c(=O)c2oc3ccccc3c21)Nc1ccc(Cl)cc1 | -1.54% |
| Cc1nc(-c2ccc(F)cc2)sc1CCNC(=O)c1ccco1 | 1.71% |
| Cc1cc(C)cc(NC(=O)Cn2nnc(C(=O)Nc3cc(C)cc(C)c3)c2N)c1 | 9.64% |
| CCc1ccc(CNC(=O)CCN2C(=O)COc3ccccc32)cc1 | 2.64% |
| CCOC(=O)c1cc(-c2ccccc2)n(CCCC(=O)Nc2cccc(Cl)c2C)c1C | -3.13% |
| CSc1ccc(CCNC(=O)C(C)n2c(C)c3cnn(-c4ccccc4)c(=O)c3c2C)cc1 (centres undefined) | 0.776% |
| COc1cc(OC)cc(C(=O)Nc2c(C(=O)Nc3ccc(F)cc3)oc3ccccc23)c1 | 6.92% |
| COc1cc(NC(=O)Cn2c(C)cc3ccccc3c2=O)cc(OC)c1OC | -8.29% |
| COCC1CCN(Cc2cn(-c3ccccc3F)nc2-c2cc(C)sc2C)CC1 | active: 73.5% |
| O=[N+]([O-])c1ccc2ncnc(N3CCN(Cc4ccc5c(c4)OCO5)CC3)c2c1 | active: 101% |
| Cc1ccc(-c2c3c(=O)n(C)c(=O)n(C)c3c3c(C(F)(F)F)nc4ccccc4n23)cc1 | 18.1% |
| Cc1c(NC(=O)c2sc3c([N+](=O)[O-])cccc3c2Cl)cccc1-c1nc2ccccc2o1 | 2.27% |
| COc1cc(CNC(=O)c2cc3n(n2)CCCN(Cc2ccc(C)cc2)C3=O)cc(OC)c1OC | -13.4% |
| CS(=O)(=O)N(CC(=O)Nc1cccc([N+](=O)[O-])c1)c1ccccc1F | active: 44.4% |

| SMILES | inhibition |
| --- | --- |
| CCS(=O)(=O)N1CC(=O)N(c2cccc(C)c2C)C(C)(C(=O)NC2CCCCC2)C1 (centres undefined) | 9.87% |
| CCOC(=O)c1[nH]c(C)c(CCC(=O)Nc2ccc(N(CC)CC)cc2C)c1C | -1.82% |
| CC(C)c1ccc(NC(=O)c2ccc(NC(=O)CCS(=O)(=O)c3cccs3)cc2)cc1 | 3.36% |
| Cc1ccc(CCNc2nc3c(S(=O)(=O)c4ccc(C)cc4)nnn3c3ccsc23)cc1 | -3.05% |
| CC(=O)Oc1c(Br)cc(N(C(C)=O)S(=O)(=O)c2ccccc2)c2ccccc12 | active: 32.9% |
| Cc1ccc(-n2ncc3c(NCCCc4ccccc4)ncnc32)cc1C | -15.5% |
| Cn1c(CCN2CCN(c3ccccn3)CC2)nc2cc(NC(=O)COc3ccc([N+](=O)[O-])cc3)ccc21 | active: 30.8% |
| CCc1ccc2occ(CC(=O)NCc3ccccc3)c2c1 | 13.5% |
| CCOc1ccccc1C(=O)Nc1cc2c(cc1C)n(C)c(=O)c(=O)n2C | 1.65% |
| COc1ccc(-c2nc3sc(CCNC(=O)c4ccc(C(C)(C)C)cc4)c(C)n3n2)cc1 | 27.8% |
| CCOC(=O)C1CCC(CN(Cc2ccc(OC)cc2)S(=O)(=O)c2ccc(F)c(C(=O)Nc3cc(Cl)ccc3OC)c2)CC1 (centres undefined) | -11% |
| Cn1cc(-c2cc3n(n2)CCC(=O)N3CCCC(=O)NCc2ccccc2)c2ccccc21 | 3.03% |
| COc1ccc(CNC(=O)CN(C)S(=O)(=O)c2ccc3[nH]c4c(c3c2)CCCC4)cc1 | 6.57% |
| CCN(CC)CCNC(=O)Cn1cnc2sc(C)c(S(=O)(=O)N3CCC(C)CC3)c2c1=O | -4.7% |
| COc1ccc(NC(=O)Cc2ccc(NC(=O)N3CCCCc4ccccc43)cc2)c(OC)c1 | 21.6% |
| CC(C)c1ccc(NC(=O)c2cc(S(=O)(=O)NCCC3=CCCCC3)ccc2F)cc1 | 2.83% |
| O=C(N/N=C/c1cccc2ccccc12)c1cc2ccccc2o1 | active: 52% |
| CC(C)c1nn2c(=O)cc(COC(=O)c3ccc4c(c3)OCO4)nc2s1 | -16.5% |
| COC(=O)c1ccc(OCC2c3cc(OC)c(OC)cc3CCN2C(=O)Cc2ccc(OC)c(OC)c2)cc1 (centres undefined) | 3.9% |
| Cc1cn2c(=O)c(S(=O)(=O)NCCc3ccc(Cl)cc3)c(C)nc2s1 | 10.7% |
| CC(=O)N1CCc2c(sc3c2c(=O)n(-c2ccccc2)c(=O)n3CC(=O)c2ccc(F)cc2)C1 | -14.2% |
| COc1cc(C(=O)Nc2nnc(CC(C)(C)C)s2)cc(OC)c1OC | -14.9% |
